The record followed here is ChEMBL document CHEMBL5606460, “ASAP - DENV-2 NS2B-NS3 protease fluorescence single point” (2024).

The term inhibition denotes the change of the read-out against control, counted positive when it falls.

This assay concerns the target Genome polyprotein (dengue virus type 2) (UniProt P29990).
[1] abbreviates: Thailand/16681/1984, Concentration 25.0 uM, Number of replicates 1.0.

Structures are written as SMILES. About 110 (5.5%) of roughly 2,000 compounds showed an effect of 50% or more. This is one part of the list.

With `CCn1ccnc(N2CC[C@H](c3ccc(OC)nc3)C2)c1=O`, the inhibition amounted to 9.96% (Thailand/16681/1984, Concentration 50.0 uM, Number of replicates 2.0, Standard deviation 0.28072363636644887 %); 17.9% (Thailand/16681/1984, Concentration 100.0 uM, Number of replicates 2.0, Standard deviation 0.843255263217835 %); 30.8% (Thailand/16681/1984, Concentration 200.0 uM, Number of replicates 2.0, Standard deviation 0.7121064089443038 %).

Consider `O=Cc1ccc(N2CCC(C(=O)N[C@H]3CCC[C@@H]3OCc3ccccc3)CC2)cc1`, for which the inhibition under setting [1] was 14.7%.

`N#C[C@H](c1c[nH]c2ccccc12)N1CCCCC1`: the inhibition was -0.972% (Thailand/16681/1984, Concentration 49.5 uM, Number of replicates 2.0, Standard deviation 1.7041829423606667 %); 0.234% (Thailand/16681/1984, Concentration 99.01 uM, Number of replicates 2.0, Standard deviation 2.1140860898938385 %); 1% (Thailand/16681/1984, Concentration 198.0 uM, Number of replicates 2.0, Standard deviation 2.4972043146057463 %).

Regarding `CCCCCC(=O)N[C@@H](Cc1ccc(CN)cc1)C(=O)Nc1cccc(C(N)=O)c1`, the inhibition (Thailand/16681/1984, Concentration 49.5 uM, Number of replicates 2.0, Standard deviation 2.7367965886293226 %) turned out to be 0.18%; the inhibition (Thailand/16681/1984, Concentration 99.01 uM, Number of replicates 2.0, Standard deviation 1.715794241074736 %) turned out to be 2.56%; the inhibition (Thailand/16681/1984, Concentration 198.0 uM, Number of replicates 2.0, Standard deviation 0.08109694285593377 %) was 6.73%.

On to `O=Cc1ccc(N2CCC(C(=O)Nc3ccc(OC(F)F)cc3)CC2)cc1`, for which the inhibition under setting [1] came out at 7.22%.

As to `CNC(=O)c1cc(Cl)ccc1NS(=O)(=O)c1ccc(F)c(C(=O)N2CCCC2)c1`, the inhibition is -4.6% (Thailand/16681/1984, Concentration 49.5 uM, Number of replicates 2.0, Standard deviation 0.7714528805703116 %); -2.1% (Thailand/16681/1984, Concentration 99.01 uM, Number of replicates 2.0, Standard deviation 1.6986403894371052 %); 1.16% (Thailand/16681/1984, Concentration 198.0 uM, Number of replicates 2.0, Standard deviation 1.4542094148600992 %).

Take `CCCN(C[C@H](O)COc1ccccc1C(=O)CCc1ccccc1)C(=O)C1CCN(c2ccc(C=O)cc2)CC1`: the inhibition under setting [1] amounted to 15.7%.

Consider `Cc1cc(CO)c2cccc(Cc3ccccc3NC(=O)c3cccc(Cn4cncn4)c3)c2n1`, for which the inhibition is, setting by setting: (Thailand/16681/1984, Concentration 49.95 uM, Number of replicates 2.0, Standard deviation 1.7939035624271265 %) -0.44%; (Thailand/16681/1984, Concentration 99.9 uM, Number of replicates 2.0, Standard deviation 0.960302709210288 %) 1.88%.

For the compound `COc1cc(Br)ccc1NC(=O)C1CCN(c2ccc(C=O)cc2)CC1`, the inhibition under setting [1] stood at 13.7%.

`O=Cc1ccc(N2CCC(C(=O)N3CCC[C@H](c4nc5ccccc5o4)C3)CC2)cc1`: the inhibition under setting [1] came to 13.1%.

Take `Cc1cc(N)cc(CNC(=O)c2ccccc2Cc2cccc3c(CO)cc(C)nc23)c1`: the inhibition reads like this: (Thailand/16681/1984, Concentration 49.95 uM, Number of replicates 2.0, Standard deviation 1.0161746789387547 %) 47.1%; (Thailand/16681/1984, Concentration 99.9 uM, Number of replicates 2.0, Standard deviation 1.7549489162224476 %) 74.7%.

`CNC(=O)c1cc(Cl)ccc1NS(=O)(=O)c1ccc(Cn2cncn2)cc1`: the inhibition is -1.89% (Thailand/16681/1984, Concentration 49.5 uM, Number of replicates 2.0, Standard deviation 0.7766096317793165 %); -0.333% (Thailand/16681/1984, Concentration 99.01 uM, Number of replicates 2.0, Standard deviation 1.2995063622910579 %); 2.7% (Thailand/16681/1984, Concentration 198.0 uM, Number of replicates 2.0, Standard deviation 1.6197418261994996 %).

As for `O=Cc1ccc(N2CCC(C(=O)N3CCC(c4nc5ccccc5[nH]4)CC3)CC2)cc1`, under setting [1], the inhibition worked out at 13.9%.

In the case of `CNC(=O)c1cc(Cl)ccc1NS(=O)(=O)c1cnn(Cc2ccccc2)c1`, the inhibition (Thailand/16681/1984, Concentration 49.5 uM, Number of replicates 2.0, Standard deviation 0.9758772341405187 %) was -6.5%.

For `COc1ccc(S(=O)(=O)Nc2ccc(C(=O)Nc3nc4ccccc4s3)cc2)cc1`, the inhibition (Thailand/16681/1984, Concentration 49.5 uM, Number of replicates 2.0, Standard deviation 3.7544426140495926 %) amounted to 29.1%; the inhibition (Thailand/16681/1984, Concentration 99.01 uM, Number of replicates 2.0, Standard deviation 4.187277935614527 %) is 33.9%; the inhibition (Thailand/16681/1984, Concentration 198.0 uM, Number of replicates 2.0, Standard deviation 2.8387015148887818 %) is 20.5%.

`CCOc1ccccc1CCNC(=O)C1CCN(c2ccc(C=O)cc2)CC1`: under setting [1], the inhibition is 8.02%.

`O=C(NCC1CC1)c1cc(Cl)ccc1NS(=O)(=O)c1ccc(Oc2ccccc2Cl)cc1`: the inhibition reads like this: (Thailand/16681/1984, Concentration 49.5 uM, Number of replicates 2.0, Standard deviation 0.6779748794958176 %) 77.8%; (Thailand/16681/1984, Concentration 99.01 uM, Number of replicates 2.0, Standard deviation 0.21598068225710626 %) 88.2%; (Thailand/16681/1984, Concentration 198.0 uM, Number of replicates 2.0, Standard deviation 0.009057863507173258 %) 87%.

As to `O=Cc1ccc(N2CCC(C(=O)Nc3c(Cl)c(F)nc(F)c3Cl)CC2)cc1`, under setting [1], the inhibition stood at 10.4%.

On to `CNC(=O)c1cc(Br)cnc1NS(=O)(=O)c1ccc(Oc2ccccc2Cl)cc1`, for which the inhibition runs as follows: (Thailand/16681/1984, Concentration 49.5 uM, Number of replicates 2.0, Standard deviation 0.1523274770628613 %) 20.5%; (Thailand/16681/1984, Concentration 99.01 uM, Number of replicates 2.0, Standard deviation 0.08785965758059779 %) 73.9%; (Thailand/16681/1984, Concentration 198.0 uM, Number of replicates 2.0, Standard deviation 0.12988512316778045 %) 87.2%.

Take `Nc1ncnc2c(Br)cccc12`: the inhibition is, setting by setting: (Thailand/16681/1984, Concentration 49.95 uM, Number of replicates 2.0, Standard deviation 2.229976942069456 %) -2.53%; (Thailand/16681/1984, Concentration 99.9 uM, Number of replicates 2.0, Standard deviation 1.6212787531772979 %) -0.078%.

Take `CN(CCS(N)(=O)=O)C(=O)c1cc(Cl)ccc1NS(=O)(=O)c1ccc(Oc2ccccc2Cl)cc1`: the inhibition reads like this: (Thailand/16681/1984, Concentration 49.5 uM, Number of replicates 2.0, Standard deviation 3.051075775612508 %) 8.12%; (Thailand/16681/1984, Concentration 99.01 uM, Number of replicates 2.0, Standard deviation 2.2523140974306535 %) 55.8%; (Thailand/16681/1984, Concentration 198.0 uM, Number of replicates 2.0, Standard deviation 0.05978513602530914 %) 97.7%.

For `CC(C)Nc1nc2ccc(C(=O)Nc3c[nH]c(C(N)=O)c3)cc2[nH]1`, the inhibition is -0.293% (Thailand/16681/1984, Concentration 49.5 uM, Number of replicates 2.0, Standard deviation 3.1266236643934975 %); 1.26% (Thailand/16681/1984, Concentration 99.01 uM, Number of replicates 2.0, Standard deviation 2.979513503560951 %); 6.16% (Thailand/16681/1984, Concentration 198.0 uM, Number of replicates 2.0, Standard deviation 2.74818795455115 %).
